Source: PMC4336329 (PLoS ONE, 2015)
The whole screen tested about 310,000 compounds, of which about 2,200 (0.71%) showed an effect of 50% or more. The effect is printed as a negative number. Some of the results follow.

molecular target: human ether-à-go-go-related gene (hERG) potassium channel (human, UniProt Q12809); test: primary screen, population patch clamp on CHO cells stably expressing hERG
Sequence (Q12809 whole entry, looked up): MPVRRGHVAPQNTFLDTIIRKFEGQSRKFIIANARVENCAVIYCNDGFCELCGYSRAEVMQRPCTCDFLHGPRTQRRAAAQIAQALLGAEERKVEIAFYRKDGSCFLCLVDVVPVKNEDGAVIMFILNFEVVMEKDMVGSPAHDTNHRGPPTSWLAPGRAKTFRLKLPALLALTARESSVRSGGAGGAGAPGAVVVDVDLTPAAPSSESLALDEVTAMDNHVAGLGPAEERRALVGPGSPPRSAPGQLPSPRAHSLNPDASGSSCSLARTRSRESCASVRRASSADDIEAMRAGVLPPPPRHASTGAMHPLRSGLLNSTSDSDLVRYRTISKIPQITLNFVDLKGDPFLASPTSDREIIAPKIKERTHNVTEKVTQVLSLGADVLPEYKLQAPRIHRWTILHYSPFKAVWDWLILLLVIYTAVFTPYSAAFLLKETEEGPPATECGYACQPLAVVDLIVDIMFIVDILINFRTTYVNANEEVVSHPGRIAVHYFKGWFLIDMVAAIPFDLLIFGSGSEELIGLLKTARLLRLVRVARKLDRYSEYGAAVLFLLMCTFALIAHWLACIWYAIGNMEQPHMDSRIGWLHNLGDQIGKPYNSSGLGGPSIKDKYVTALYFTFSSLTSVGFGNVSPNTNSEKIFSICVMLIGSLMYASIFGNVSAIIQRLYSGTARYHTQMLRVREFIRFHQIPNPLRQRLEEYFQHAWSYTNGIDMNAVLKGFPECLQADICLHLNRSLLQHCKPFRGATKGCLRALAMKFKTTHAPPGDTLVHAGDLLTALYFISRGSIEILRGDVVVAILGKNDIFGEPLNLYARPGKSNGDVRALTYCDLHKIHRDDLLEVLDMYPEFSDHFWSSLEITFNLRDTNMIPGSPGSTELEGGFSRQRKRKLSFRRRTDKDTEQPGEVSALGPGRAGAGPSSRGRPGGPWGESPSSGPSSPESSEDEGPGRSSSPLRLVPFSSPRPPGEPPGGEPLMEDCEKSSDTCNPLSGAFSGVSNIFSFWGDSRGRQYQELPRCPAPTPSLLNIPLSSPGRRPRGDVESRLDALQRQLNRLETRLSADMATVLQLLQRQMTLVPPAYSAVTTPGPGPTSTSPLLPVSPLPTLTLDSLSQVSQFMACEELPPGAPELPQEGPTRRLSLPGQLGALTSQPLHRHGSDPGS

How did the “hERG current change (%, negative = inhibition) at 1uM” value turn out when Cc1cccc(C(=O)NNC(=O)/C=C/C(=O)O)c1 was run?
The value was 14.2%.

How did the “hERG current change (%, negative = inhibition) at 1uM” value turn out when CCOc1ccc(-n2c(SCC(=O)Nc3ccc(C(=O)O)cc3)nc3ccccc3c2=O)cc1 was run?
Its value is 10.4%.

Cn1ncc2c(Nc3ccc(Br)cc3)nc(Nc3ccc(Br)cc3)nc21 was tested. Which “hERG current change (%, negative = inhibition) at 1uM” value did it give?
Its value is 7.09%.

With CCOC(=O)C1=C(C)Nc2nc(SC)nn2C1c1ccc(C(=O)OC)cc1 (centres unmarked) as the compound, how does the “hERG current change (%, negative = inhibition) at 1uM” value read?
Its value is 11.4%.

Which “hERG current change (%, negative = inhibition) at 1uM” value does the source give for CCOC(=O)c1ccc(/C=N/O)[n+](Cc2ccccc2)c1.[Br-] here?
The value was 12.9%.

How did the “hERG current change (%, negative = inhibition) at 1uM” value turn out when CC(=O)N/N=C/c1ccc(OCCOc2ccc(Br)cc2)cc1 was run?
Its value is 2.27%.

S=c1[nH]nc(C2(c3ccccc3)CCCC2)o1 was tested. Which “hERG current change (%, negative = inhibition) at 1uM” value did it give?
The value was -5.77%.

With Cc1cc2n(n1)SC(Nc1ccc(F)cc1)N2 (centres unmarked) as the compound, how does the “hERG current change (%, negative = inhibition) at 1uM” value read?
The value was -16.2%.

Which “hERG current change (%, negative = inhibition) at 1uM” value does the source give for O=C(NNC(=S)NC(=O)c1cccnc1)c1ccc(Cl)cc1 here?
The value was 16.5%.

With Cc1noc(NS(=O)(=O)c2ccc(NC(=O)c3nn(-c4ccc(F)cc4)ccc3=O)cc2)c1C as the compound, how does the “hERG current change (%, negative = inhibition) at 1uM” value read?
The value was -11.6%.

Which “hERG current change (%, negative = inhibition) at 1uM” value does the source give for O=C(/C=C/c1ccc(Cl)cc1Cl)N(Cc1ccc(Cl)cc1)C1CCS(=O)(=O)C1 (centres unmarked) here?
The value was 13.4%.

COc1cc(NC(=O)C(=O)NCCN(C)C)c(OC)cc1Cl was tested. Which “hERG current change (%, negative = inhibition) at 1uM” value did it give?
Its value is 16.6%.

How did the “hERG current change (%, negative = inhibition) at 1uM” value turn out when O=C1C2CCCN2C(c2ccccc2F)N1c1cccc(Cl)c1 (centres unmarked) was run?
The value was 6.83%.

How did the “hERG current change (%, negative = inhibition) at 1uM” value turn out when Cc1csc(SCC(=O)NC(=O)NC2CCCC2)n1 was run?
The value was 14.6%.

For CC[C@H](C)/C=C(C)/C=C/C1=CC2=CC(=O)[C@]3(C)OC(=O)[C@@H](C(C)=O)[C@@H]3C2=CO1, which “hERG current change (%, negative = inhibition) at 1uM” value is on record?
Its value is 16.5%.

Cc1ccccc1CCNC(=O)c1cc(C2CC2)nc2c1cnn2C(C)C was tested. Which “hERG current change (%, negative = inhibition) at 1uM” value did it give?
Its value is 14.2%.

O=C(c1ccc(Cl)cc1)N1N=CCC1(O)c1ccc(Cl)cc1 (centres unmarked) was tested. Which “hERG current change (%, negative = inhibition) at 1uM” value did it give?
Its value is 15.4%.

Which “hERG current change (%, negative = inhibition) at 1uM” value does the source give for O=C(NCCCCNC(=O)c1ccc(Cl)s1)c1ccc(Cl)s1 here?
The value was 11.6%.

How did the “hERG current change (%, negative = inhibition) at 1uM” value turn out when COc1ccc(N2CCN(C(=O)CCCOc3cc(=O)n(C)c4ccccc34)CC2)cc1 was run?
The value was 1.6%.

Which “hERG current change (%, negative = inhibition) at 1uM” value does the source give for CCN(CC)CCN1C(=O)C(=O)/C(=C(/O)c2ccc(F)cc2)C1c1ccncc1 (centres unmarked) here?
The value was 7.52%.

For CCOC(=O)N1CCN(C(=O)CSc2nc3c([nH]c4ccccc43)c(=O)n2C)CC1, which “hERG current change (%, negative = inhibition) at 1uM” value is on record?
Its value is 4.31%.

For O=C(CCSc1ccccc1)N1CCN(c2ccccc2F)CC1, which “hERG current change (%, negative = inhibition) at 1uM” value is on record?
Its value is 2.16%.

CCN1C(=O)CSC1=Nc1ccc(Cl)c(Cl)c1 was tested. Which “hERG current change (%, negative = inhibition) at 1uM” value did it give?
The value was 10.4%.

How did the “hERG current change (%, negative = inhibition) at 1uM” value turn out when S=C(Nc1ccc(Oc2ccccc2)cc1)N1CCOCC1 was run?
The value was -16.4%.

For O=C1CCC(=O)N1c1nc2nc(-c3ccccc3)cc(-c3ccccc3)n2n1, which “hERG current change (%, negative = inhibition) at 1uM” value is on record?
The value was -10.4%.

How did the “hERG current change (%, negative = inhibition) at 1uM” value turn out when COC(=O)c1nonc1NCn1nnc2ccccc21 was run?
The value was 9.55%.

With Oc1cccc(/C=N/c2c(-c3ccco3)nc3ccccn23)c1 as the compound, how does the “hERG current change (%, negative = inhibition) at 1uM” value read?
Its value is 12.4%.

For COc1ccc(CCN2CC(C(=O)NCCN3CCOC3=O)CCC2=O)cc1 (centres unmarked), which “hERG current change (%, negative = inhibition) at 1uM” value is on record?
Its value is 13.7%.

How did the “hERG current change (%, negative = inhibition) at 1uM” value turn out when Cc1ccc(C)c(NC(=S)N(Cc2ccco2)C(C)c2cccs2)c1 (centres unmarked) was run?
The value was 3.46%.

For Cc1ccc(NC(=O)c2cc(N3C(=O)C4CC=CCC4C3=O)ccc2N2CCCCC2)cc1 (centres unmarked), which “hERG current change (%, negative = inhibition) at 1uM” value is on record?
Its value is 0.757%.

CCCCc1nnc(NC(=O)c2ccc(S(=O)(=O)N3CCOCC3)cc2)s1 was tested. Which “hERG current change (%, negative = inhibition) at 1uM” value did it give?
The value was 11.1%.

CCCNC(=O)Cn1c(=O)oc2cc(S(=O)(=O)N3CC(C)CC(C)C3)ccc21 (centres unmarked) was tested. Which “hERG current change (%, negative = inhibition) at 1uM” value did it give?
Its value is 14.6%.

CC(C)(C)OC(=O)N1Cc2ccccc2C[C@H]1C(=O)NC1CCCC1 was tested. Which “hERG current change (%, negative = inhibition) at 1uM” value did it give?
Its value is 8.57%.

With C=CCOc1c(Br)cc(/C=C2\SC(=Nc3ccccc3)NC2=O)cc1OC as the compound, how does the “hERG current change (%, negative = inhibition) at 1uM” value read?
Its value is 10.6%.

How did the “hERG current change (%, negative = inhibition) at 1uM” value turn out when Cc1nccn1CC(=O)N/N=C/c1ccc(O)c(O)c1 was run?
Its value is -3.16%.

How did the “hERG current change (%, negative = inhibition) at 1uM” value turn out when CCOc1cc(CN2CCC(CO)(Cc3cccc(C(F)(F)F)c3)CC2)ccc1OC was run?
Its value is -78%.

Which “hERG current change (%, negative = inhibition) at 1uM” value does the source give for CC(C)(O)C#Cc1ccc(C(=O)N2CCCC2C(=O)O)s1 (centres unmarked) here?
Its value is 17.7%.

How did the “hERG current change (%, negative = inhibition) at 1uM” value turn out when Cn1c2ccc(F)cc2c2nnc(SCC(=O)Nc3cccc(O)c3)nc21 was run?
The value was 3.36%.

With CCc1ccc2c(c1)cc(CN(C(=S)Nc1cccc(C)c1)C1CC1)c1nnnn12 as the compound, how does the “hERG current change (%, negative = inhibition) at 1uM” value read?
Its value is 1.94%.

How did the “hERG current change (%, negative = inhibition) at 1uM” value turn out when COc1ccc(N2CC(NC(=O)Nc3ccccc3)CC2=O)cc1 (centres unmarked) was run?
Its value is 2.45%.

With Cc1cc(C)cc(N2CC(C)Cn3c2nc2c3c(=O)[nH]c(=O)n2C)c1 (centres unmarked) as the compound, how does the “hERG current change (%, negative = inhibition) at 1uM” value read?
The value was 9.57%.

Which “hERG current change (%, negative = inhibition) at 1uM” value does the source give for O=[N+]([O-])c1ccc(Oc2cccc(F)c2)c2ccncc12 here?
The value was 5.67%.

For CCOC(=O)c1cccc(NS(=O)(=O)c2cnc[nH]2)c1, which “hERG current change (%, negative = inhibition) at 1uM” value is on record?
Its value is 16.7%.

For NC(=S)N/N=C/c1ccccc1OC(=O)c1cc2ccccc2oc1=O, which “hERG current change (%, negative = inhibition) at 1uM” value is on record?
Its value is 17.5%.
